The values that follow come from US10683307B2, “Compounds for use in antibacterial applications” (GLAXOSMITHKLINE INTELLECTUAL PROPERTY DEVELOPMENT LIMITED, priority 2015, dated 2020).

The structures appear in SMILES notation. Structures can show the parent of a compound that is named as a salt. Where two headings read alike, the source gives them in different places.

One experiment deals with Streptococcus pneumonia. To be noted: Table 2 column B1 = Streptococcus pneumonia. How it is done: (§1) Antimicrobial Activity Assay:
(§2) Whole-cell antimicrobial activity was determined by broth microdilution using the Clinical and Laboratory Standards Institute (CLSI) recommended procedure, Document M7-A7, “Methods for Dilution Susceptibility Tests for Bacteria that Grow Aerobically” and M11-A8, “Methods for Antimicrobial Susceptibility Testing of Anaerobic Bacteria” The compounds were tested in serial two-fold dilutions ranging from 0.016 to 16 mcg/mL, as well as 0.008 to 32 μg/mL.
(§3) Compounds were also evaluated against various Gram-positive organisms, various anaerobic organisms, and against various biothreat organisms.
(§4) The minimum inhibitory concentration (MIC) was determined as the lowest concentration of compound that inhibited visible growth. A mirror reader was used to assist in determining the MIC endpoint.

The test system of another experiment is Staphylococcus aureus. To be noted: Table 2 column A1 = Staphylococcus aureus. As to the method: as §1, §2, §3, §4
Another experiment deals with Streptococcus pyogenes. To be noted: Table 2 column C1 = Streptococcus pyogenes. As to the method: as §1, §2, §3, §4
The subject of experiment [1] is viridans group Streptococcus. As to the method: as §1, §2, §3, §4
The mark [2] stands for this setting: Streptococcus pneumoniae, read-out: MIC90.
Setting [3] is: Streptococcus pyogenes, read-out: MIC90.

Consider `Cn1cc(C(=O)O)c(=O)c2c(CC[C@H]3CC[C@H](NCc4cnc5c(n4)NC(=O)CS5)CC3)c(F)cc(F)c21` [Compound Z, TFA salt, 6,8-difluoro-1-methyl-4-oxo-5-(2-((1r,4s)-4-(((3-oxo-3,4-dihydro-2H-pyrazino [2,3-b][1,4]thiazin-6-yl)methyl)amino)cyclohexyl)ethyl)-1,4-dihydroquinoline-3-carboxylic acid], for which the MIC90 with Streptococcus pneumonia (setting [2]) is above 32 µg/mL; with Staphylococcus aureus (read-out: MIC90), at most 0.063 µg/mL.

In the case of `COc1ccc2ncc(=O)n(CCN3CC[C@@H](CNCc4ncc5c(n4)NC(=O)CO5)C3)c2n1` [Formula (VII) free base, 2-({[((3S)-1-{2-[6-(methyloxy)-3-oxopyrido[2,3-b]pyrazin-4(3H)-yl]ethyl}-3-pyrrolidinyl)methyl]amino}methyl)-1H-pyrimido[5,4-b][1,4]oxazin-7(6H)-one], the MIC90 was at most 0.25 µg/mL in the experiment with Streptococcus pneumonia, at most 0.125 µg/mL against Staphylococcus aureus and at most 0.125 µg/mL in the experiment with Streptococcus pyogenes.

For `COc1cnc2ccc(F)c(CN[C@H]3CC[C@H](NCc4cnc5c(n4)NC(=O)CO5)CC3)c2n1` [Formula (V) free base, 6-((((1R,4R)-4-(((6-fluoro-3-methoxyquinoxalin-5-yl)methyl)amino)cyclohexyl)amino)methyl)-2H-pyrazino[2,3-b][1,4]oxazin-3(4H)-one], the MIC90 is at most 0.25 µg/mL in the experiment on Streptococcus pneumonia (setting [2]), at most 0.125 µg/mL with Staphylococcus aureus (read-out: MIC90) and at most 0.25 µg/mL in the experiment with Streptococcus pyogenes (setting [3]).

Consider `COc1ccc2ccc(=O)n(CCN3C[C@H](CNCc4cnc5c(n4)NC(=O)CS5)[C@H](O)C3)c2n1` [Compound Y, 1-{2-[(3S,4S)-3-hydroxy-4-{[({3-oxo-2H,3H,4H-pyrazino[2,3-b][1,4]thiazin-6-yl}methyl)amino]methyl}pyrrolidin-1-yl]ethyl}-7-methoxy-1,2-dihydro-1,8-naphthyridin-2-one], for which the MIC90 with Streptococcus pneumonia (setting [2]) is at most 0.032 µg/mL; in the experiment on Staphylococcus aureus (read-out: MIC90), at most 0.125 µg/mL.

Regarding `COc1ccc2ncc(=O)n(CCN3CC[C@@H](CNCc4ncc5c(n4)NC(=O)CO5)C3)c2n1` [Formula (VII) HCl salt, 2-({[((3S)-1-{2-[6-(methyloxy)-3-oxopyrido[2,3-b]pyrazin-4(3H)-yl]ethyl}-3-pyrrolidinyl)methyl]amino}methyl)-1H-pyrimido[5,4-b][1,4]oxazin-7(6H)-one], the MIC90 is at most 0.5 µg/mL with Streptococcus pneumonia (setting [2]), at most 0.125 µg/mL in the experiment with Staphylococcus aureus (read-out: MIC90) and at most 0.25 µg/mL in the experiment with Streptococcus pyogenes (setting [3]).

Turning to `COc1cnc2ccc(F)c(CNC3CCC(NCc4cnc5c(n4)NC(=O)CO5)CC3)c2n1.Cl` [Formula (V) HCl salt, 6-((((1R,4R)-4-(((6-fluoro-3-methoxyquinoxalin-5-yl)methyl)amino)cyclohexyl)amino)methyl)-2H-pyrazino[2,3-b][1,4]oxazin-3(4H)-one, Hydrochloride], the MIC90 is at most 0.125 µg/mL against Streptococcus pneumonia, at most 0.063 µg/mL against Staphylococcus aureus, at most 0.25 µg/mL against Streptococcus pyogenes and at most 2 µg/mL in experiment [1].
